PubChem BioAssay AID686970 (National Center for Advancing Translational Sciences (NCATS), 2013)
The whole screen tested about 360,000 compounds, of which about 6,000 (1.7%) were called active. Inconclusive results, whose numbers are uncertain, are shown with a selection of clear calls. Calls come from the whole dose curve; as a rule, active = well fitted cell-killing curve with a large enough effect; inconclusive = small, poorly fitted or top-dose-only effect, or effect the other way; inactive = flat fitted curve, though single readings scatter. Potencies of inconclusive entries are left out as doubtful fits.

experiment: qHTS for induction of synthetic lethality in tumor cells producing 2HG: qHTS for the HT-1080-NT fibrosarcoma cell line; details: HT-1080-NT fibrosarcoma viability, CellTiter-Glo ATP luminescence, 48 h; activity, negative = less viability: at 46.1 µM (top of the series) unless noted;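 note: NT is the 2HG producing partner of a matched IDH1 knockdown line; nearly all actives have a fitted effect of over 55% in size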;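 for activity, negative = less viability: 0% = DMSO-treated cells and -100% = media-only wells without cells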
How it was run: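 HT-1080-NT; 750 cells/well; 5% FBS RPMI; 48 h compound, 37 degrees C; CellTiter-Glo luminescence; curve fitting and curve-class assignment.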
Potency is the fitted concentration of half-maximal effect; tags give direction and shape of the fitted curve.

Structure (SMILES) | Potency | activity, negative = less viability
Cc1ccccc1NC(=S)N/N=C/c1ccc(O)cc1O | inconclusive [cytotoxic, single point] | 
COCCN(C(=O)CSc1nnc(-c2ccc(F)cc2)n1N)c1c(N)n(CC(C)C)c(=O)[nH]c1=O | inactive | 
CCOC(=O)C(NC(=O)c1cccc(Cl)c1)(OCc1ccc(F)cc1)C(F)(F)F (stereo not drawn) | inconclusive [cytotoxic, single point] | 
CC1CCCCN1CCNC(=O)c1ccc2c(c1)N(Cc1cccc(Cl)c1)C(=O)c1ccccc1S2(=O)=O (stereo not drawn) | inconclusive [cytotoxic, single point] | 
CC(C)(C)c1cc(C(=O)NC2CC2)n(Cc2ccc(F)cc2)n1 | inactive | 
C=CCNC(=O)c1c(N)n(-c2cccc(S(N)(=O)=O)c2)c2nc3ccccc3nc12 | inconclusive [cytotoxic, partial curve] | 
Cc1ccc(CSc2ccc(-c3ccc4c(c3)OCO4)nn2)cc1 | inconclusive [cytotoxic, single point] | 
COC(=O)c1sccc1NC(=O)COc1ccccc1Cl | inactive | 
O=c1c2c(nc3c(-c4ccccc4)c[nH]n13)CCC2 | active: 11.2 µM | 
COc1ccccc1NS(=O)(=O)c1cccc(C(=O)N/N=C/c2ccc([N+](=O)[O-])o2)c1 | inconclusive [cytotoxic, single point] | 
CC1CCc2c(sc(NC(=O)C3c4ccccc4Oc4ccccc43)c2C(N)=O)C1 (stereo not drawn) | inconclusive [cytotoxic, single point] | 
Cc1c(NC(=O)CSc2nnc3c4ccccc4n(CCc4ccccc4)c3n2)c(=O)n(-c2ccccc2)n1C |  | inconclusive: -30.1% [cytotoxic]
CSc1ccc(Cl)c(C(=O)NCCOc2cc(C)ccc2C(C)C)c1 | inconclusive [cytotoxic, single point] | 
COc1ccccc1C(=O)NC(=S)Nc1ccc2[nH]c(=O)[nH]c2c1 | inconclusive [cytotoxic, partial curve, poor fit] | 
COc1ccc2nc3n(c(=O)c2c1)-c1cc2ccccc2cc1C(=O)NC3Cc1ccccc1 (stereo not drawn) | inactive | 
Cc1ccc2nc(-c3ccc(NS(=O)(=O)c4ccc(F)c(F)c4)cc3)sc2c1 | inconclusive [cytotoxic, single point] | 
CCN(CC)S(=O)(=O)c1ccc2c(c1)C(=NO)c1cc(S(=O)(=O)N(CC)CC)ccc1-2 | active: 18.4 µM | 
COC(=O)C1C(c2ccc(OC)cc2)NC(=O)NC1(O)C(F)(F)Cl (stereo not drawn) | inactive | 
CC1CCN(CCOCCSc2ccc(Cl)cc2)CC1 | inconclusive [cytotoxic, single point] | 
Cc1ccc(C(=O)Nc2nc(COc3ccccc3)cs2)s1 | inconclusive [cytotoxic, single point] | 
Cc1cc(Cl)c2ccc3ccccc3c2n1 | inactive | 
O=C1C2CCCCN2C(=O)N1CCN1CCN(c2cccc(Cl)c2)CC1 (stereo not drawn) | inactive | 
O=C1NCC(c2ccccc2)C1C(=O)N/N=C\c1ccc(-c2ccc(Cl)c(Cl)c2)o1 (stereo not drawn) | inconclusive [cytotoxic, single point] | 
COc1ccc(C(=O)O/N=C(\N)Cc2ccc([N+](=O)[O-])cc2)c(OC)c1 | inconclusive [cytotoxic, partial curve] | 
CCCCCCCn1c2c(c(=N)c3ccccc31)CCC2 | inconclusive [cytotoxic, partial curve, poor fit] | 

Structure (SMILES) | Potency | activity, negative = less viability
Cc1ccc(NC(=O)c2csc(-c3ccccc3)c2C)cc1 | inconclusive [cytotoxic, single point] | 
CCN(CCO)c1ccc(Nc2cc(-c3ccc(-c4ccccc4)cc3)ncn2)cc1 | inconclusive [cytotoxic, single point] | 
COc1ccc(C(=O)OCCOc2cccc(Cl)c2)cc1S(=O)(=O)N1CCOCC1 | inactive | 
CNCc1sccc1C | inconclusive [rising, single point] | 
CCOC(=O)c1[nH]c2ccc(OC)cc2c1NC(=S)N1CCN(c2ccccc2OC)CC1 | inconclusive [cytotoxic, partial curve] | 
O=C(Nc1cccc2ccccc12)c1ccccc1 | inactive | 
CCCc1cnc(NCCNCC(O)COc2ccc(Cl)c(Cl)c2)nc1 (stereo not drawn) | active: 18.4 µM | 
Cc1ccc(-c2csc(NC(=O)c3c(C)noc3C)n2)cc1C | inactive | 
CC(O)(c1ccccc1)c1nc(-c2ccc3c(c2)OCO3)cs1 (stereo not drawn) | inconclusive [cytotoxic, single point] | 
CC(C)Sc1nc2sc(-c3ccccc3)cc2c(=O)n1N | inconclusive [rising, partial curve, poor fit] | 
Nc1cc(C(=O)N/N=C/c2cccc([N+](=O)[O-])c2)n[nH]c1=O |  | inconclusive: 31.4%
COc1ccc(NC(=O)CC2C(=O)N(C)C(=S)N2CCc2ccc(F)cc2)cc1 (stereo not drawn) | inconclusive [cytotoxic, partial curve] | 
COc1ccc(-c2cc(C(=O)Oc3ccc([N+](=O)[O-])cc3)c3ccccc3n2)cc1 | inactive | 
O=C(COc1cc(F)ccc1[N+](=O)[O-])Nc1cccc(S(=O)(=O)NC2=NCCC2)c1 | inconclusive [cytotoxic, single point] | 
COc1ccc(CNC(=O)C2CCN(C(=O)[C@@H]3Cc4ccccc4CN3)CC2)cc1 | inactive | 
COc1ccc(CCN2C(=O)c3[nH]nc(-c4ccccc4O)c3C2c2cccc(Cl)c2)cc1 (stereo not drawn) | active: 23.1 µM | 
CC1(C)SC2C(NC(=O)C3(N)CCCCC3)C(=O)N2C1C(=O)O (stereo not drawn) | inactive | 
CN(C)CCP(=O)(c1ccccc1)c1ccccc1 | inactive | 
COc1cccc(-c2nc(-c3ccccc3)nc(N3CCN(C)CC3)c2C#N)c1 | inconclusive [cytotoxic, single point] | 
CCCCOc1cccc(C(=O)Nc2ccc(S(=O)(=O)Nc3cc(C)on3)cc2)c1 | inactive | 
O=C(OCC(=O)C12CC3CC(CC(C3)C1)C2)c1ccccc1O | inactive | 
CC(C)Oc1ccc(CSC(=N)N)cc1 | inconclusive [cytotoxic, single point] | 
CN(C)c1nc(N)nc(N(c2ccccc2)c2ccccc2)n1 | inactive | 
CCC(=O)Nc1cccc(C(=O)c2ccc(C)c(C)c2)c1 | inactive | 
COc1ccc(CCNC(=O)COc2cc(O)c3c(c2)OC(C)(C)CC3=O)cc1OC | inactive | 

Structure (SMILES) | Potency | activity, negative = less viability
COc1cccc(-c2cnc3c(NC(C)=O)cc(-c4ccc(S(C)(=O)=O)cc4)cn23)c1 | inconclusive [cytotoxic, partial curve] | 
COc1cc(N)ccc1Nc1c2ccccc2nc2ccccc12 | inconclusive [cytotoxic, single point] | 
O=C(NCCN1CCN(c2ccccc2)CC1)Nc1cccc(Cl)c1 | active: 20.6 µM | 
O=C(Cn1nnc2ccccc2c1=O)Nc1ccc2c(c1)CCC2 | inactive | 
CC(=O)Nc1nc(-c2ccccc2)nc(-c2ccccc2OC(C)=O)n1 | inconclusive [cytotoxic, single point] | 
CC(=O)Nc1c(Br)cc2c(c1Br)Cc1cc(Br)ccc1-2 | inconclusive [cytotoxic, single point] | 
Cc1ccc(C)c(CN2CCC(CNC(=O)Nc3ccc(F)c(Cl)c3)CC2)c1 | active: 25.9 µM | 
Cc1ccc(-c2csc(=Nc3cccnc3)n2CCCn2ccnc2)cc1C | inactive | 
COc1cccc(C(c2nnnn2C2CCCCC2)N2CCN(C/C=C/c3ccccc3)CC2)c1OC (stereo not drawn) | inconclusive [cytotoxic, single point] | 
CCc1ccc(Nc2cc(=O)n(C3CCCCC3)c(=O)[nH]2)cc1 | inconclusive [cytotoxic, partial curve] | 
O=C1NCCN1CCNc1nc(NCC2CC2)nc2cc(-c3ccccc3)sc12 | inconclusive [cytotoxic, single point] | 
O=C(N/N=C\c1ccc([N+](=O)[O-])s1)c1cncc(Br)c1 | inconclusive [cytotoxic, full curve] | 
Clc1ccc(-n2nnc(-c3nccs3)n2)cc1Cl |  | inconclusive: 50.7%
CCOc1ccc(NS(=O)(=O)c2ccc(NC(=S)NC(=O)C(C)C)cc2)cc1 | inconclusive [cytotoxic, single point] | 
Oc1c(CN2CCc3ccccc3C2)cc(Cl)c2cccnc12 | inconclusive [cytotoxic, partial curve] | 
COC(=O)c1cc(-c2ccc(S(=O)(=O)N3CCCC3)cc2)c(C(F)(F)F)s1 | inactive | 
Cc1ccc(NC(=O)c2ccc(NC(=O)c3ccccc3)cc2)cc1C | inconclusive [cytotoxic, single point] | 
Cc1nn(-c2ccccn2)c2c1C(c1ccccc1Cl)C1=C(N2)c2ccccc2C1=O (stereo not drawn) | inactive | 
CCOC(=O)N1CCC(N2CCCC(CO)(Cc3ccccc3C)C2)CC1 (stereo not drawn) | inactive | 
COc1cc(OC)cc(C(=O)c2c(C)c(C#N)c3ccccn23)c1 |  | inconclusive: 2.99% [cytotoxic]
Cc1cc(C(F)(F)F)nc(-n2cc(-c3cccc(N)c3)nn2)n1 | inconclusive [cytotoxic, single point] | 
Cc1noc(C)c1S(=O)(=O)N(CC(=O)NC1CCC(C)CC1)c1ccc(C(C)C)cc1 (stereo not drawn) | inactive | 
CCOC(=O)c1c(-c2ccccc2)csc1NC(=O)c1nn(CC)cc1Br | inconclusive [cytotoxic, single point] | 
